# Measurements: the supplement of paper PMC8728848
# This is one part of the list.
# B1: Clec2 (Mus musculus), Q9JL99 (protein)
# chain: MQDEDGYITLNIKPRKQALSSAEPASSWWRVMALVLLISSMGLVVGLVALGIMSVTQQKYLLAEKENLSATLQQLAKKFCQELIRQSEIKTKSTFEHKCSPCATKWRYHGDSCYGFFRRNLTWEESKQYCTEQNATLVKTASQSTLDYIAERITSVRWIGLSRQNSKKDWMWEDSSVLRKNGINLSGNTEENMNCAYLHNGKIHPASCKERHYLICERNAGMTRVDQLL
# What was measured:
# Test in all cases: glycan array binding signal (z-score within array); higher = stronger binding
# Conditions in all cases: glycan notation: IUPAC condensed, linker removed
# [1] = molecular target: Neu5Ac(a2-3)Gal(b1-4)GlcNAc(b1-3)[Neu5Ac(a2-3)Gal(b1-4)GlcNAc(b1-6)]GalNAc
# Summary of the method: (§1)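 The binding signal is a Z-score computed within each array and averaged over linkers. Arrays of the same protein sequence at different concentrations or buffers were also averaged together. Data originate from 3228 arrays in the Consortium for Functional Glycomics database, kept only where the protein sequence was available.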
# [2] = molecular target: Neu5Ac(a2-3)Gal(b1-4)GlcNAc(b1-6)GalNAc
# Summary of the method: as §1
# [3] = molecular target: Neu5Ac(a2-3)Gal(b1-4)GlcNAc(b1-6)[Gal(b1-3)]GalNAc
# Summary of the method: as §1
# [4] = molecular target: Neu5Ac(a2-3)Gal(b1-4)GlcNAc(b1-6)[Neu5Ac(a2-3)Gal(b1-3)]GalNAc
# Summary of the method: as §1
# [5] = molecular target: Neu5Ac(a2-3)Gal(b1-4)GlcNAc6S
# Summary of the method: as §1
# [6] = molecular target: Neu5Ac(a2-3)Gal(b1-4)[Fuc(a1-3)]GlcNAc
# Summary of the method: as §1
# [7] = molecular target: Neu5Ac(a2-3)Gal(b1-4)[Fuc(a1-3)]GlcNAc(b1-2)Man
# Summary of the method: as §1
# [8] = molecular target: Neu5Ac(a2-3)Gal(b1-4)[Fuc(a1-3)]GlcNAc(b1-3)Gal
# Summary of the method: as §1
# [9] = molecular target: Neu5Ac(a2-3)Gal(b1-4)[Fuc(a1-3)]GlcNAc(b1-3)Gal(b1-4)GlcNAc
# Summary of the method: as §1
# [10] = molecular target: Neu5Ac(a2-3)Gal(b1-4)[Fuc(a1-3)]GlcNAc(b1-3)Gal(b1-4)[Fuc(a1-3)]GlcNAc(b1-3)Gal(b1-4)[Fuc(a1-3)]GlcNAc
# Summary of the method: as §1
# [11] = molecular target: Neu5Ac(a2-3)Gal(b1-4)[Fuc(a1-3)]GlcNAc(b1-3)GalNAc
# Summary of the method: as §1
# [12] = molecular target: Neu5Ac(a2-3)Gal(b1-4)[Fuc(a1-3)]GlcNAc(b1-6)[Gal(b1-3)]GalNAc
# Summary of the method: as §1
# [13] = molecular target: Neu5Ac(a2-3)Gal(b1-4)[Fuc(a1-3)]GlcNAc(b1-6)[Neu5Ac(a2-3)Gal(b1-3)]GalNAc
# Summary of the method: as §1
# [14] = molecular target: Neu5Ac(a2-3)Gal(b1-4)[Fuc(a1-3)]GlcNAc6S
# Summary of the method: as §1
# [15] = molecular target: Neu5Ac(a2-3)Gal6S(b1-4)GlcNAc
# Summary of the method: as §1
# [16] = molecular target: Neu5Ac(a2-3)Gal6S(b1-4)[Fuc(a1-3)]GlcNAc
# Summary of the method: as §1
# [17] = molecular target: Neu5Ac(a2-3)GalNAc
# Summary of the method: as §1
# [18] = molecular target: Neu5Ac(a2-3)GalNAc(b1-4)GlcNAc
# Summary of the method: as §1
# [19] = molecular target: Neu5Ac(a2-3)[GalNAc(b1-4)]Gal(b1-4)Glc
# Summary of the method: as §1
# [20] = molecular target: Neu5Ac(a2-3)[GalNAc(b1-4)]Gal(b1-4)GlcNAc
# Summary of the method: as §1
# [21] = molecular target: Neu5Ac(a2-3)[GalNAc(b1-4)]Gal(b1-4)GlcNAc(b1-3)GalNAc
# Summary of the method: as §1
# [22] = molecular target: Neu5Ac(a2-3)[Neu5Ac(a2-6)]GalNAc
# Summary of the method: as §1
# [23] = molecular target: Neu5Ac(a2-6)Gal
# Summary of the method: as §1
# [24] = molecular target: Neu5Ac(a2-6)Gal(b1-3)GlcNAc(b1-3)[Gal(b1-4)GlcNAc(b1-6)]Gal(b1-4)Glc
# Summary of the method: as §1
# [25] = molecular target: Neu5Ac(a2-6)Gal(b1-4)Glc
# Summary of the method: as §1
# [26] = molecular target: Neu5Ac(a2-6)Gal(b1-4)GlcNAc
# Summary of the method: as §1
# [27] = molecular target: Neu5Ac(a2-6)Gal(b1-4)GlcNAc(b1-2)Man
# Summary of the method: as §1
# [28] = molecular target: Neu5Ac(a2-6)Gal(b1-4)GlcNAc(b1-2)Man(a1-3)Man(b1-4)GlcNAc(b1-4)GlcNAc
# Summary of the method: as §1
# [29] = molecular target: Neu5Ac(a2-6)Gal(b1-4)GlcNAc(b1-2)Man(a1-3)[Gal(b1-4)GlcNAc(b1-2)Man(a1-6)]Man(b1-4)GlcNAc(b1-4)GlcNAc
# Summary of the method: as §1
# [30] = molecular target: Neu5Ac(a2-6)Gal(b1-4)GlcNAc(b1-2)Man(a1-3)[GlcNAc(b1-2)Man(a1-6)]Man(b1-4)GlcNAc(b1-4)GlcNAc
# Summary of the method: as §1
# [31] = molecular target: Neu5Ac(a2-6)Gal(b1-4)GlcNAc(b1-2)Man(a1-3)[GlcNAc(b1-4)][Neu5Ac(a2-6)Gal(b1-4)GlcNAc(b1-2)Man(a1-6)]Man(b1-4)GlcNAc(b1-4)GlcNAc
# Summary of the method: as §1
# [32] = molecular target: Neu5Ac(a2-6)Gal(b1-4)GlcNAc(b1-2)Man(a1-3)[Man(a1-6)]Man(b1-4)GlcNAc(b1-4)GlcNAc
# Summary of the method: as §1
# [33] = molecular target: Neu5Ac(a2-6)Gal(b1-4)GlcNAc(b1-2)Man(a1-3)[Neu5Ac(a2-3)Gal(b1-4)GlcNAc(b1-2)Man(a1-6)]Man(b1-4)GlcNAc(b1-4)GlcNAc
# Summary of the method: as §1
# [34] = molecular target: Neu5Ac(a2-6)Gal(b1-4)GlcNAc(b1-2)Man(a1-3)[Neu5Ac(a2-6)Gal(b1-4)GlcNAc(b1-2)Man(a1-6)]Man(b1-4)GlcNAc(b1-4)GlcNAc
# Summary of the method: as §1
# [35] = molecular target: Neu5Ac(a2-6)Gal(b1-4)GlcNAc(b1-2)Man(a1-3)[Neu5Ac(a2-6)Gal(b1-4)GlcNAc(b1-2)Man(a1-6)]Man(b1-4)GlcNAc(b1-4)[Fuc(a1-6)]GlcNAc
# Summary of the method: as §1
# [36] = molecular target: Neu5Ac(a2-6)Gal(b1-4)GlcNAc(b1-2)Man(a1-6)Man(b1-4)GlcNAc(b1-4)GlcNAc
# Summary of the method: as §1
# [37] = molecular target: Neu5Ac(a2-6)Gal(b1-4)GlcNAc(b1-2)Man(a1-6)[Gal(b1-4)GlcNAc(b1-2)Man(a1-3)]Man(b1-4)GlcNAc(b1-4)GlcNAc
# Summary of the method: as §1
# [38] = molecular target: Neu5Ac(a2-6)Gal(b1-4)GlcNAc(b1-2)Man(a1-6)[GlcNAc(b1-2)Man(a1-3)]Man(b1-4)GlcNAc(b1-4)GlcNAc
# Summary of the method: as §1
# [39] = molecular target: Neu5Ac(a2-6)Gal(b1-4)GlcNAc(b1-2)Man(a1-6)[Man(a1-3)]Man(b1-4)GlcNAc(b1-4)GlcNAc
# Summary of the method: as §1
# [40] = molecular target: Neu5Ac(a2-6)Gal(b1-4)GlcNAc(b1-2)[Neu5Ac(a2-6)Gal(b1-4)GlcNAc(b1-4)]Man(a1-3)[GlcNAc(b1-4)][Neu5Ac(a2-6)Gal(b1-4)GlcNAc(b1-2)[Neu5Ac(a2-6)Gal(b1-4)GlcNAc(b1-6)]Man(a1-6)]Man(b1-4)GlcNAc(b1-4)GlcNAc
# Summary of the method: as §1
# [41] = molecular target: Neu5Ac(a2-6)Gal(b1-4)GlcNAc(b1-2)[Neu5Ac(a2-6)Gal(b1-4)GlcNAc(b1-4)]Man(a1-3)[GlcNAc(b1-4)][Neu5Ac(a2-6)Gal(b1-4)GlcNAc(b1-4)Man(a1-6)]Man(b1-4)GlcNAc(b1-4)GlcNAc
# Summary of the method: as §1
# [42] = molecular target: Neu5Ac(a2-6)Gal(b1-4)GlcNAc(b1-2)[Neu5Ac(a2-6)Gal(b1-4)GlcNAc(b1-6)]Man(a1-6)[Neu5Ac(a2-6)Gal(b1-4)GlcNAc(b1-2)Man(a1-3)][GlcNAc(b1-4)]Man(b1-4)GlcNAc(b1-4)GlcNAc
# Summary of the method: as §1
# [43] = molecular target: Neu5Ac(a2-6)Gal(b1-4)GlcNAc(b1-3)Gal(b1-3)GlcNAc
# Summary of the method: as §1
# [44] = molecular target: Neu5Ac(a2-6)Gal(b1-4)GlcNAc(b1-3)Gal(b1-4)GlcNAc
# Summary of the method: as §1
# [45] = molecular target: Neu5Ac(a2-6)Gal(b1-4)GlcNAc(b1-3)Gal(b1-4)GlcNAc(b1-2)Man(a1-3)[Neu5Ac(a2-6)Gal(b1-4)GlcNAc(b1-3)Gal(b1-4)GlcNAc(b1-2)Man(a1-6)]GalNAc
# Summary of the method: as §1
binder,measurement,setting,value
B1,glycan array binding signal (z-score),[1],-0.342
same,glycan array binding signal (z-score),[2],-0.173
same,glycan array binding signal (z-score),[3],0.119
same,glycan array binding signal (z-score),[4],-0.594
same,glycan array binding signal (z-score),[5],2.54
same,glycan array binding signal (z-score),[6],-0.527
same,glycan array binding signal (z-score),[7],-0.248
same,glycan array binding signal (z-score),[8],-0.649
same,glycan array binding signal (z-score),[9],-0.224
same,glycan array binding signal (z-score),[10],-0.521
same,glycan array binding signal (z-score),[11],0.837
same,glycan array binding signal (z-score),[12],-0.571
same,glycan array binding signal (z-score),[13],0.101
same,glycan array binding signal (z-score),[14],1.83
same,glycan array binding signal (z-score),[15],0.844
same,glycan array binding signal (z-score),[16],-0.33
same,glycan array binding signal (z-score),[17],-0.084
same,glycan array binding signal (z-score),[18],-0.365
same,glycan array binding signal (z-score),[19],-0.342
same,glycan array binding signal (z-score),[20],-0.748
same,glycan array binding signal (z-score),[21],-0.352
same,glycan array binding signal (z-score),[22],2.23
same,glycan array binding signal (z-score),[23],0.223
same,glycan array binding signal (z-score),[24],-0.779
same,glycan array binding signal (z-score),[25],0.133
same,glycan array binding signal (z-score),[26],-0.277
same,glycan array binding signal (z-score),[27],1.49
same,glycan array binding signal (z-score),[28],-0.282
same,glycan array binding signal (z-score),[29],-0.526
same,glycan array binding signal (z-score),[30],-0.833
same,glycan array binding signal (z-score),[31],-0.774
same,glycan array binding signal (z-score),[32],-0.706
same,glycan array binding signal (z-score),[33],-0.94
same,glycan array binding signal (z-score),[34],-0.489
same,glycan array binding signal (z-score),[35],-0.567
same,glycan array binding signal (z-score),[36],-0.685
same,glycan array binding signal (z-score),[37],-0.707
same,glycan array binding signal (z-score),[38],-0.458
same,glycan array binding signal (z-score),[39],-0.867
same,glycan array binding signal (z-score),[40],-0.622
same,glycan array binding signal (z-score),[41],-0.605
same,glycan array binding signal (z-score),[42],-0.253
same,glycan array binding signal (z-score),[43],-0.457
same,glycan array binding signal (z-score),[44],-0.737
same,glycan array binding signal (z-score),[45],-0.609
